For this test, the system named is MP1. To be noted: 10 μM inhibitor; substrates β-endorphin, dynorphin A and leumorphin.

SMILES strings stand for the structures.

As to `CC(C)C[C@H](NC(=O)[C@@H](O)[C@H](N)Cc1ccccc1)C(=O)O` [bestatin], the “effect on the rate of peptide hydrolysis or the distribution of cleavage products” value was “no effect”.

(Values after article PMC2765508 (Biochemistry, 2009).)
